B1: TEV protease; numbered along this chain (parent)
chain: MGESLFKGPRDYNPISSSICHLTNESDGHTTSLYGIGFGPFIITNKHLFRRNNGTLVVQSLHGVFKVKDTTTLQQHLVDGRDMIIIRMPKDFPPFPQKLKFREPQREERICLVTTNFQTKSMSSMVSDTSCTFPSGDGIFWKHWIQTKDGQCGSPLVSTRDGFIVGIHSASNFTNTNNYFTSVPKNFMELLTNQEAQQWVSGWRLNADSVLWGGHKVFMVKPEEPFQPVKEATQL

In the experiment the parent is B1. The experiment can be described thus: raw area under fraction-flipped curve 0-4 h after induction (AUC4h, not background-subtracted), DNA-recorder readout of cleavage of the substrate (dimensionless); higher = more cleavage of the substrate by the protease variant. The note with it: temperature: 34 °C; time window: 0-4 h after rhamnose induction. The method, then: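 In vivo DNA recorder in E. coli TOP10(DE3) ΔrhaA at 34 °C. Each TEVp single-site mutant (parent TEVp 0) is paired with a single-site variant of the 7-mer TEVs (canonical ENLYFQ|S). The substrate sits between flexible linkers in a Bxb1-sfGFP-TEVs-SsrA fusion, so cleavage stabilises Bxb1 and speeds flipping of a recombination array, read by NGS. The value is the raw area under the fraction-flipped curve over 0-4 h after rhamnose induction (AUC4h), with ≥20 reads per time point. It is not background-subtracted; inactive controls average about 0.047.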

The source of these data is the supplement of paper PMC12217912.

The other results are listed elsewhere or left out. Sequences were assembled here from the parent chain. Values near 0.05 are background.
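Also: Bxb1 expression induced with 0.2% (w/v) L-rhamnose at OD600 near 0.5, cultures sampled hourly, flipped fraction per protease–substrate barcode pair counted by paired-end Illumina sequencing.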

For the variant MGESLFKGPRDYNPISSSICHLTNESDGHTTSLYGIGFGPFIITNKHLFRRWNGTLVVQSLHGVFKVKDTTTLQQHLVDGRDMIIIRMPKDFPPFPQKLKFREPQREERICLVTTNFQTKSMSSMVSDTSCTFPSGDGIFWKHWIQTKDGQCGSPLVSTRDGFIVGIHSASNFTNTNNYFTSVPKNFMELLTNQEAQQWVSGWRLNADSVLWGGHKVFMVKPEEPFQPVKEATQL [N52W], the “area with substrate ENLAFQS” value worked out at 0.0515, the “area with substrate ENLDFQS” value was determined as 0.0582, the “area with substrate ENLEFQS” value was 0.0597 and the “area with substrate ENLFFQS” value stood at 0.0669. The “area with substrate ENLHFQS” value amounted to 0.0632, the “area with substrate ENLIFQS” value was found to be 0.0577, the “area with substrate ENLKFQS” value worked out at 0.0697 and the “area with substrate ENLLFQS” value came to 0.0636. Also, the “area with substrate ENLMFQS” value amounted to 0.0727, the “area with substrate ENLNFQS” value came to 0.0615, the “area with substrate ENLPFQS” value is 0.064 and the “area with substrate ENLRFQS” value is 0.063. The “area with substrate ENLVFQS” value was determined as 0.0653 and the “area with substrate ENLWFQS” value amounted to 0.0047.

Turning to MGESLFKGPRDYNPISSSICHLTNESDGHTTYLYGIGFGPFIITNKHLFRRNNGTLVVQSLHGVFKVKDTTTLQQHLVDGRDMIIIRMPKDFPPFPQKLKFREPQREERICLVTTNFQTKSMSSMVSDTSCTFPSGDGIFWKHWIQTKDGQCGSPLVSTRDGFIVGIHSASNFTNTNNYFTSVPKNFMELLTNQEAQQWVSGWRLNADSVLWGGHKVFMVKPEEPFQPVKEATQL [S32Y], the “area with substrate ENLAFQS” value was determined as 0.0676, the “area with substrate ENLCFQS” value came out at 0.0795, the “area with substrate ENLDFQS” value stood at 0.0702 and the “area with substrate ENLEFQS” value was found to be 0.0729. The “area with substrate ENLFFQS” value was 0.0836, the “area with substrate ENLGFQS” value is 0.0646, the “area with substrate ENLHFQS” value was 0.0656 and the “area with substrate ENLIFQS” value is 0.0766. Besides, the “area with substrate ENLKFQS” value turned out to be 0.078, the “area with substrate ENLLFQS” value was found to be 0.0704, the “area with substrate ENLMFQS” value was determined as 0.069 and the “area with substrate ENLNFQS” value came out at 0.0692. For the same variant, the “area with substrate ENLPFQS” value was found to be 0.0662, the “area with substrate ENLQFQS” value came to 0.0729, the “area with substrate ENLRFQS” value is 0.0672 and the “area with substrate ENLSFQS” value stood at 0.0675. Further, the “area with substrate ENLVFQS” value stood at 0.0661 and the “area with substrate ENLWFQS” value amounted to 0.0734.

Take MGESLFKGPRDYNPISSSICHLTNESDGHTTSLYGIGFGIFIITNKHLFRRNNGTLVVQSLHGVFKVKDTTTLQQHLVDGRDMIIIRMPKDFPPFPQKLKFREPQREERICLVTTNFQTKSMSSMVSDTSCTFPSGDGIFWKHWIQTKDGQCGSPLVSTRDGFIVGIHSASNFTNTNNYFTSVPKNFMELLTNQEAQQWVSGWRLNADSVLWGGHKVFMVKPEEPFQPVKEATQL [P40I]: the “area with substrate ENLAFQS” value turned out to be 0.0633, the “area with substrate ENLCFQS” value was found to be 0.0356, the “area with substrate ENLEFQS” value turned out to be 0.0419 and the “area with substrate ENLFFQS” value stood at 0.0762. Moreover, the “area with substrate ENLGFQS” value came out at 0.118, the “area with substrate ENLHFQS” value worked out at 0.0759, the “area with substrate ENLIFQS” value turned out to be 0.0705 and the “area with substrate ENLKFQS” value came to 0.0776. Also, the “area with substrate ENLNFQS” value is 0.0584, the “area with substrate ENLPFQS” value was found to be 0.0596, the “area with substrate ENLQFQS” value came to 0.0938 and the “area with substrate ENLRFQS” value stood at 0.0584. For the same variant, the “area with substrate ENLSFQS” value was determined as 0.0619 and the “area with substrate ENLVFQS” value was found to be 0.079.

For the variant MGESLFKGPRDYNPISSSICHLTNESDGHTTSLYGIGFGPFIITNKHLFRRNNGTLVVQSLHGVFKVKDTTTLQQHLVDGRDMIIIRMPKDFPPFPQKLKFREPQREERICQVTTNFQTKSMSSMVSDTSCTFPSGDGIFWKHWIQTKDGQCGSPLVSTRDGFIVGIHSASNFTNTNNYFTSVPKNFMELLTNQEAQQWVSGWRLNADSVLWGGHKVFMVKPEEPFQPVKEATQL [L112Q], the “area with substrate ENLAFQS” value was 0.0704, the “area with substrate ENLCFQS” value worked out at 0.0704, the “area with substrate ENLDFQS” value is 0.071 and the “area with substrate ENLEFQS” value is 0.0821. Further, the “area with substrate ENLFFQS” value is 0.064, the “area with substrate ENLIFQS” value is 0.0682, the “area with substrate ENLKFQS” value came to 0.0807 and the “area with substrate ENLNFQS” value worked out at 0.0791. Also, the “area with substrate ENLQFQS” value is 0.065, the “area with substrate ENLRFQS” value is 0.0705, the “area with substrate ENLVFQS” value was found to be 0.0649 and the “area with substrate ENLWFQS” value came to 0.0598.

Turning to MGESLFKGPRDYNPISSSICHLTNESDTHTTSLYGIGFGPFIITNKHLFRRNNGTLVVQSLHGVFKVKDTTTLQQHLVDGRDMIIIRMPKDFPPFPQKLKFREPQREERICLVTTNFQTKSMSSMVSDTSCTFPSGDGIFWKHWIQTKDGQCGSPLVSTRDGFIVGIHSASNFTNTNNYFTSVPKNFMELLTNQEAQQWVSGWRLNADSVLWGGHKVFMVKPEEPFQPVKEATQL [G28T], the “area with substrate ENLAFQS” value worked out at 0.0701, the “area with substrate ENLEFQS” value was 0.0509, the “area with substrate ENLFFQS” value came out at 0.0683 and the “area with substrate ENLHFQS” value is 0.0654. In addition, the “area with substrate ENLIFQS” value stood at 0.0781, the “area with substrate ENLKFQS” value was found to be 0.0615, the “area with substrate ENLLFQS” value came out at 0.0667 and the “area with substrate ENLMFQS” value is 0.0852. Moreover, the “area with substrate ENLNFQS” value is 0.0668, the “area with substrate ENLPFQS” value was found to be 0.0389, the “area with substrate ENLQFQS” value was 0.104 and the “area with substrate ENLSFQS” value stood at 0.0551. Moreover, the “area with substrate ENLWFQS” value came out at 0.0683.

As to MGESLFKGPRDYNPISSSICHLTNESDGHTTSLYGIGFGPFIITNKHLFRRNNGTLVVQSLHGVFKVKDTTTLQQHLVDGRDMIIIRMPKDFPPFPQKLKFREPQREERICLVTTNFQTWSMSSMVSDTSCTFPSGDGIFWKHWIQTKDGQCGSPLVSTRDGFIVGIHSASNFTNTNNYFTSVPKNFMELLTNQEAQQWVSGWRLNADSVLWGGHKVFMVKPEEPFQPVKEATQL [K120W], the “area with substrate ENLAFQS” value worked out at 0.0616, the “area with substrate ENLCFQS” value worked out at 0.0627, the “area with substrate ENLDFQS” value was found to be 0.0465 and the “area with substrate ENLEFQS” value was 0.0642. For the same variant, the “area with substrate ENLFFQS” value was determined as 0.078, the “area with substrate ENLHFQS” value stood at 0.0674, the “area with substrate ENLIFQS” value is 0.0623 and the “area with substrate ENLKFQS” value is 0.0598. For the same variant, the “area with substrate ENLLFQS” value came out at 0.0686, the “area with substrate ENLMFQS” value is 0.0718, the “area with substrate ENLNFQS” value was found to be 0.103 and the “area with substrate ENLSFQS” value was 0.0646. Besides, the “area with substrate ENLVFQS” value stood at 0.123 and the “area with substrate ENLWFQS” value is 0.0657.

With MGESLFKGPRDYNPISSSICHLTNESDGHTTSLYGIGFGPFIITNKHLFRRNNGTLVVQSLHGVFKVKDTTTLQQHLVDGTDMIIIRMPKDFPPFPQKLKFREPQREERICLVTTNFQTKSMSSMVSDTSCTFPSGDGIFWKHWIQTKDGQCGSPLVSTRDGFIVGIHSASNFTNTNNYFTSVPKNFMELLTNQEAQQWVSGWRLNADSVLWGGHKVFMVKPEEPFQPVKEATQL [R81T], the “area with substrate ENLAFQS” value was 0.0456, the “area with substrate ENLDFQS” value came to 0.0733, the “area with substrate ENLEFQS” value stood at 0.0568 and the “area with substrate ENLFFQS” value amounted to 0.069. For the same variant, the “area with substrate ENLGFQS” value was 0.0601, the “area with substrate ENLHFQS” value is 0.0579, the “area with substrate ENLIFQS” value worked out at 0.0757 and the “area with substrate ENLKFQS” value was determined as 0.0528. For the same variant, the “area with substrate ENLLFQS” value was 0.0669, the “area with substrate ENLMFQS” value worked out at 0.0369, the “area with substrate ENLNFQS” value came out at 0.0657 and the “area with substrate ENLPFQS” value was found to be 0.0587. In addition, the “area with substrate ENLQFQS” value was 0.0614, the “area with substrate ENLRFQS” value worked out at 0.0593, the “area with substrate ENLSFQS” value came out at 0.0573 and the “area with substrate ENLTFQS” value stood at 0.0576. The “area with substrate ENLVFQS” value was 0.064 and the “area with substrate ENLWFQS” value stood at 0.0682.

As for MGESLFKGPRDYNPISSSICHLTNESDGHTTSLYGIGFGPFIITNKHLFRRNNGTSVVQSLHGVFKVKDTTTLQQHLVDGRDMIIIRMPKDFPPFPQKLKFREPQREERICLVTTNFQTKSMSSMVSDTSCTFPSGDGIFWKHWIQTKDGQCGSPLVSTRDGFIVGIHSASNFTNTNNYFTSVPKNFMELLTNQEAQQWVSGWRLNADSVLWGGHKVFMVKPEEPFQPVKEATQL [L56S], the “area with substrate ENLAFQS” value is 0.0489, the “area with substrate ENLCFQS” value stood at 0.0608, the “area with substrate ENLDFQS” value is 0.0454 and the “area with substrate ENLEFQS” value turned out to be 0.0629. For the same variant, the “area with substrate ENLFFQS” value was found to be 0.0436, the “area with substrate ENLGFQS” value came out at 0.055, the “area with substrate ENLHFQS” value was 0.0511 and the “area with substrate ENLIFQS” value came to 0.0558. Besides, the “area with substrate ENLKFQS” value stood at 0.0616, the “area with substrate ENLLFQS” value amounted to 0.0487, the “area with substrate ENLNFQS” value was 0.0759 and the “area with substrate ENLPFQS” value was 0.0481. Also, the “area with substrate ENLQFQS” value was found to be 0.0685, the “area with substrate ENLRFQS” value was 0.0526, the “area with substrate ENLSFQS” value was 0.0509 and the “area with substrate ENLTFQS” value is 0.0398. For the same variant, the “area with substrate ENLWFQS” value amounted to 0.047.

Regarding MGESLFKGPRDYNPISSSICHLTNESDGHTTSLYGIGFGPFIITNKHLFRRNNGTLVVQSLHGVFKVKDTTTLQQHLVDGRDMIIIRMPKDFPPFPQKLKFREPQREERICLVTTNFQTKSMSSMVSDTSCTFPSGDGIFWKHWIQTKDGQCGSPLVSTRDGFIVGIHSASNFTNTNNYFTSVPKNFMELLTNQEAQQWVSGWRLNADSVLWGGHKVFMVKPEEPFQPVKEGTQL [A232G], the “area with substrate ENLAFQS” value worked out at 0.0951, the “area with substrate ENLCFQS” value stood at 0.0906, the “area with substrate ENLDFQS” value was found to be 0.058 and the “area with substrate ENLFFQS” value is 0.106. Besides, the “area with substrate ENLMFQS” value worked out at 0.0684, the “area with substrate ENLNFQS” value amounted to 0.0555, the “area with substrate ENLPFQS” value was found to be 0.0667 and the “area with substrate ENLWFQS” value was 0.0633.
